# Experimental data published in PubChem BioAssay AID504332 (National Center for Advancing Translational Sciences (NCATS), 2011).
# Several values for one entry are separate records, joined by “and”; a condition that tells them apart may be missing. Equal entries are not always repeated. The campaign covered roughly 350,000 compounds. About 31,000 (8.9%) were called active. Inconclusive means that the source gave no clear call. Such entries were picked first, then a sample of the others. Calls follow the shape of the dose curve; as a rule, active = well fitted inhibition curve with a large enough effect; inconclusive = small, poorly fitted or top-dose-only effect; inactive = no such curve, though single readings can be large or run the other way. Potencies beside an inconclusive call are fits to weak or partial responses and may not hold up.
# Biological target: Histone-lysine N-methyltransferase EHMT2 (Homo sapiens) (UniProt Q96KQ7)
# Sequence of UniProt Q96KQ7 (Q96KQ7 whole entry, looked up): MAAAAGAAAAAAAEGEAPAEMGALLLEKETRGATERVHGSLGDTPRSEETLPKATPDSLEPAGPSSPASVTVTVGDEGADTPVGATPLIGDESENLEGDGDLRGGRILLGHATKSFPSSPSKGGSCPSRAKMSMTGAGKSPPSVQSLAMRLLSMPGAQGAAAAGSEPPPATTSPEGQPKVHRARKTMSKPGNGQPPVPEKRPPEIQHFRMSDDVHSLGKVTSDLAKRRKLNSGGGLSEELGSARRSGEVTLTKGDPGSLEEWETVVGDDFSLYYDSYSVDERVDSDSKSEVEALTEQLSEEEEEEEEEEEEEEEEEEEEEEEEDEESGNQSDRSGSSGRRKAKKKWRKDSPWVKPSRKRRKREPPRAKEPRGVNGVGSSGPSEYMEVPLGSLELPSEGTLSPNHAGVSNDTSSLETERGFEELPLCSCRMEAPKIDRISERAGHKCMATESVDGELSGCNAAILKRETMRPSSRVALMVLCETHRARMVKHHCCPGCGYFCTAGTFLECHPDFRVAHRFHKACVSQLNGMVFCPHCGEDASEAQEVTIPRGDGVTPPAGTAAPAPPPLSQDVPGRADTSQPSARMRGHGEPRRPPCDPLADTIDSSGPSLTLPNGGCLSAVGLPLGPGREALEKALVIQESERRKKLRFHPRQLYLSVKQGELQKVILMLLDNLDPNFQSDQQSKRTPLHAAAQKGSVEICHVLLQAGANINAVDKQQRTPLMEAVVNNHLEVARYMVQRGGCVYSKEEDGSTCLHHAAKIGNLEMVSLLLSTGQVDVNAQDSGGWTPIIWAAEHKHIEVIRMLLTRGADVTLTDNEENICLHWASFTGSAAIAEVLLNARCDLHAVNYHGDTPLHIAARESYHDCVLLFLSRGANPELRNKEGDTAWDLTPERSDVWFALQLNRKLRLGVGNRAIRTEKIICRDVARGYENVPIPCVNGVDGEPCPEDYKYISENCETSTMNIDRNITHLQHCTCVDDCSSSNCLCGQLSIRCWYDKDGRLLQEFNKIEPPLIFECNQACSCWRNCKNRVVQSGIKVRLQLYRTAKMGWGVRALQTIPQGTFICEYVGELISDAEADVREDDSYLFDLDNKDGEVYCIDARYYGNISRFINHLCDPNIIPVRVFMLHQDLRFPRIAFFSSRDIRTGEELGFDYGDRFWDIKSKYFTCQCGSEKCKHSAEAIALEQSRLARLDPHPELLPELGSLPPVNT
# Test: qHTS Assay for Inhibitors of Histone Lysine Methyltransferase G9a; also: nearly all actives have a fitted effect of over 75% in size
# Details: G9a H3K9 monomethylation, AlphaScreen, 2 h; activity, negative = inhibition: at 59 µM (top of the series) unless noted
# How it was run: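 Readings reflect AlphaScreen signal from monomethyl-H3K9 antibody detection. HMT at 20 nM; substrate b-H3K9 500 nM; cofactor SAM 20 uM; 2 h RT reaction; compounds tested as titrations in qHTS with 15 min preincubation.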
# % is scaled to controls: 0 for no effect and ±100 for the full control effect; potency is read from the fitted curve at half-maximal effect; tags tell the direction and shape of the fitted curve.
SMILES,Potency,"activity, negative = inhibition"
CCn1c(-c2csc(-c3ccc(Cl)cc3)n2)n[nH]c1=S,"inconclusive: 0.794 µM [inhibitor, full curve, poor fit]",
O=C(CN1C(=O)CSC1=O)c1ccccc1,"inconclusive: 79.4 µM [inhibitor, single point]",
CCN1CCN(C(=O)CCCCCn2c(=O)[nH]c3cc(C(=O)OC)ccc3c2=O)CC1,"inconclusive: 89.1 µM [inhibitor, single point]",
CN1CCN(CC(=O)Nc2sc3c(c2C(=O)Nc2ccccc2)CCCC3)CC1,"inconclusive: 79.4 µM [inhibitor, single point]",
COc1cccc(-n2c(SCC(=O)NC3CCS(=O)(=O)C3)nc3ccccc3c2=O)c1 (stereo not drawn),"inconclusive: 0.891 µM [inhibitor, single point]",
Cc1ccc2nc(SCC(=O)c3cc(C)n(C)c3C)[nH]c2c1,inactive,
CCOc1ccc(OCCOCCNCCOC)cc1,"inconclusive: 39.8 µM [inhibitor, single point]",
Cc1cc(=O)[nH]c(SCC(=O)c2ccc(C(C)C)cc2)n1,"inconclusive: 50.1 µM [inhibitor, partial curve, poor fit]",
Cc1ccc(NC(=S)NNC(=O)c2c(Cl)c(C)nn2C)cc1,active: 1.41 µM,
Cc1nnc(SCC(=O)NCCN2C(=O)CSC2=O)s1,"inconclusive: 39.8 µM [inhibitor, partial curve]",
O=C(CS(=O)(=O)c1c[nH]c2ccccc12)N1CCCCCC1,inactive,
O=C(c1ccco1)N1CCN(Cc2ccc(Cl)cc2)CC1,active: 35.5 µM,
CC(C)(C)c1[nH]nc2c1C(c1ccco1)C(C#N)=C(N)O2 (stereo not drawn),"inconclusive: 44.7 µM [inhibitor, partial curve]",
C/C(=N\NC(=O)c1cc(-c2ccc(O)cc2)nc2ccccc12)c1cccnc1,"inconclusive: 63.1 µM [inhibitor, single point]",
O=C(NCCN1C(=O)S/C(=C\c2cccnc2)C1=O)c1cccc(OC(F)F)c1,"inconclusive: 20 µM [inhibitor, single point]",
O=C(CSc1nc(-c2ccc(Cl)cc2)nc2c1Cc1ccccc1O2)N1CCCCC1,"inconclusive: 35.5 µM [inhibitor, single point]",
O=C(O)CNS(=O)(=O)c1ccc2[nH]c(=O)c(=O)[nH]c2c1,active: 56.2 µM,
O=C(c1cc(-c2ccco2)nc2ccccc12)N(Cc1nnc(-c2ccc(Cl)cc2)o1)C1CC1,active: 5.01 µM,
Cc1ccc(N2C(=O)CS(=O)(=O)C23C(=O)N(Cc2cccc(F)c2)c2ccccc23)cc1Cl (stereo not drawn),inactive,
CC(C)Cc1nnc(NC(=O)CSc2ccccn2)s1,active: 44.7 µM,
O=C1Nc2ccc(NS(=O)(=O)c3cccs3)c3cccc1c23,inactive,
CCC(C)c1ccccc1NC(=O)COC(=O)C1=COCCO1 (stereo not drawn),inactive,
C=CCc1cccc2cc(C(=O)NCc3cccnc3)c(=O)oc12,"inconclusive: 12.6 µM [inhibitor, partial curve, poor fit]",
NC(=O)CC[C@@H](N)C(=O)O,inactive,
O=c1[nH]c(=S)c2ncn(-c3ccccc3)c2[nH]1,active: 25.1 µM,

SMILES,Potency,"activity, negative = inhibition"
Nc1ccc(S(=O)(=O)c2cccc(N)c2)cc1,inactive,
CCOC(=O)N1CCN(C(=S)NC(=O)c2c(-c3c(Cl)cccc3Cl)noc2C)CC1,"inconclusive: 79.4 µM [inhibitor, single point]",
O=C(O)CCN(CCC(=O)O)c1ccccc1,,inconclusive: -74.3% [inhibitor]
O=C(O)CNS(=O)(=O)Cc1ccccc1,inactive,
Cc1ccccc1C(=O)N1CCN(c2nc(N3CCOCC3)nc(N3CCOCC3)n2)CC1,"inconclusive: 2.24 µM [inhibitor, partial curve, poor fit]",
CCSc1ncnc2sc3c(c12)CCC3,inactive,
CCOC(=O)c1nnn(-c2ccc([N+](=O)[O-])cc2[N+](=O)[O-])c1C,inactive,
COC(=O)Cn1c(=O)c2c(nc3n2CCN3c2cccc(C)c2)n(C)c1=O,"inconclusive: 14.1 µM [inhibitor, partial curve, poor fit]",
Cc1nnc(NC(=O)C23CC4CC(CC(C4)C2)C3)s1,,inactive: -9.74% [at 2.33 µM]
CCOC(=O)c1ccc(NC(=O)C(C)NS(=O)(=O)c2ccc(OC)cc2)cc1 (stereo not drawn),,inconclusive: -54.7% [inhibitor]
Cc1ccccc1/C=C1\SC(=S)N(/N=C/c2cc([N+](=O)[O-])ccc2O)C1=O,active: 44.7 µM,
Cc1ccc(C)c(C(=O)COC(=O)c2cc([N+](=O)[O-])ccc2N2CCOCC2)c1,"inconclusive: 39.8 µM [inhibitor, partial curve]",
O=C(NCc1ccco1)/C(=C/c1ccco1)NC(=O)c1ccccc1,"inconclusive: 89.1 µM [inhibitor, single point]",
O=c1c(-c2ccc(Cl)cc2)nc2cncnc2n1Cc1ccccc1Cl,,inactive: 7.67% [at 12.7 µM]
Cc1cccc(C2=NN(c3ccccc3)[C@H](CO)[C@H]2c2ccc(F)cc2)c1,inactive,
COc1ccc2nc3sc(C(=O)Nc4ccccc4F)cc3cc2c1,"inconclusive: 5.62 µM [inhibitor, single point]",
O=c1[nH]c(SCCOc2cccc3ccccc23)nc2ccccc12,"inconclusive: 44.7 µM [inhibitor, partial curve, poor fit]",
CCCCN1CCC(COC(=O)c2cc(Cl)c(N)c3c2OCCO3)CC1,"inconclusive: 56.2 µM [inhibitor, partial curve] and inconclusive: 7.08 µM [inhibitor, partial curve, poor fit]",
CCN(CC)c1ccc2c(Cl)c(Br)c(=O)oc2c1,,inactive: 9.49% [at 0.0925 µM]
O=C(/C=C/c1cccc(Br)c1)OCC(=O)N1CCN(c2ccccc2)CC1,inactive,
CCc1ccc(C2C(C(=O)Nc3ccccc3)=C(C)Nc3c(C(=O)Nc4ccc(C)cc4)cnn32)cc1 (stereo not drawn),inactive,
Cc1ccc(S(=O)(=O)NCC(c2ccc(N(C)C)cc2)N2CCCC2)cc1 (stereo not drawn),"inconclusive: 22.4 µM [inhibitor, single point]",
C=CCNC(=O)CSc1cc([N+](=O)[O-])cc(S(=O)(=O)Cc2ccccc2)c1,"inconclusive: 25.1 µM [inhibitor, single point]",
CC1=C(C#N)C(=O)N(C2CCS(=O)(=O)C2)C(=O)/C1=C\c1ccc(C)o1 (stereo not drawn),active: 20 µM,
Cc1ccc(-n2c(CCC(=O)O)ccc2-c2cccs2)cc1C,"inconclusive: 20 µM [inhibitor, partial curve, poor fit]",

SMILES,Potency,"activity, negative = inhibition"
CC(=O)c1cccc(NC(=O)C(C)OC(=O)c2cc(=O)[nH]c3ccccc23)c1 (stereo not drawn),"inconclusive: 89.1 µM [inhibitor, partial curve, poor fit]",
CCn1nnc(-c2ccccc2NC(=O)c2ccc(-n3cnnn3)cc2)n1,"inconclusive: 0.891 µM [inhibitor, partial curve, poor fit]",
COC(=O)c1ccc(S(=O)(=O)N2CCCN(Cc3cccc(Br)c3F)CC2)n1C,"inconclusive: 50.1 µM [inhibitor, partial curve, poor fit]",
O=C(CSc1nccn1Cc1ccco1)Nc1cccc(F)c1,inactive,
O=C(CCCOc1ccc(Cl)cc1Cl)NNC(=O)c1ccc(NC(=O)c2ccccc2)cc1,"inconclusive: 8.91 µM [inhibitor, single point]",
CCc1c(C)c2ccc3c(c2oc1=O)CN(Cc1ccccc1)CO3,inactive,
Cc1sc2ncnc(N(C)Cc3cccs3)c2c1C,inactive,
O=C(Nc1ccc(C(F)(F)F)cc1)C1CCC(CNS(=O)(=O)c2cccc3nsnc23)CC1 (stereo not drawn),inactive,
O=C(Cc1cccc2ccccc12)Nc1nnc(-c2cccc([N+](=O)[O-])c2)s1,"inconclusive: 89.1 µM [inhibitor, single point]",
COc1cc(C2CC(=O)Nc3c2c(=O)[nH]c2nc4ccccc4n32)ccc1O (stereo not drawn),inactive,
CC(CCc1ccccc1)NC(=O)CN1CCc2ccccc2C1 (stereo not drawn),inactive,
O=C(Nn1cnnc1)c1cccc(S(=O)(=O)N2CCOCC2)c1,"inconclusive: 44.7 µM [inhibitor, partial curve]",
CCn1nnnc1-c1ccc(OC)c(S(=O)(=O)Nc2ccc(C)c(C)c2)c1,"inconclusive: 89.1 µM [inhibitor, single point]",
CCOc1ccc(NC(=S)NC23CN4CN(CN(C4)C2)C3)cc1,"inconclusive: 89.1 µM [inhibitor, single point]",
Cn1cc(CCC(=O)NCc2cccc(Cl)c2)c2ccccc21,"inconclusive: 2 µM [inhibitor, full curve]",
CCC(CO)[n+]1c(C)cc(/C=C2\Sc3ccccc3N2Cc2ccccc2)cc1C (stereo not drawn),"inconclusive: 89.1 µM [inhibitor, single point]",
O=C(O)c1cccc(Nc2ncnc3sccc23)c1,active: 39.8 µM,
Cc1ccc(OCC(=O)NCCS(=O)(=O)N2CCN(c3ccccc3)CC2)cc1,"inconclusive: 79.4 µM [inhibitor, single point]",
Cc1ccc(-c2nn(-c3ccccc3)cc2C(N)=O)o1,,inactive: -49.7% [at 12.7 µM]
COC(=O)/C=C1\OC(c2ccccc2)=CC1=O,active: 3.98 µM,
N#CC1CC(c2ccccc2)=NN1c1ccccc1[N+](=O)[O-] (stereo not drawn),"inconclusive: 28.2 µM [inhibitor, full curve, poor fit]",
COc1ccccc1-c1nnc(Nc2nc3c(OC)cccc3s2)o1,inactive,
CCC(C)NC(=O)c1cc2c(Cl)nc3ccc(C)cc3c2s1 (stereo not drawn),inactive,
